Assay results: publication PMC12820563, “FoxP3 forms a head-to-head dimer in vivo and stabilizes its multimerization on adjacent microsatellites”
This is one part of the list.

Target: T1, MBP-FoxP1dN (Mus musculus, UniProt P58462 326-579)
T1 sequence: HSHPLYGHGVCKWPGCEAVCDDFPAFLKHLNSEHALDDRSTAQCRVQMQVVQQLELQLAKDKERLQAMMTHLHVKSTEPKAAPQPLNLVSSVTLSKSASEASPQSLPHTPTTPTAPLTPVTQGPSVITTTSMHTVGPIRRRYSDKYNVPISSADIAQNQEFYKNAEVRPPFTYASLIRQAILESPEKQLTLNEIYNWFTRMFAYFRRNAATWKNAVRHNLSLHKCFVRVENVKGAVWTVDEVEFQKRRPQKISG
Assay: PD-seq (MBP pull-down with sequencing); 20 mM Tris-HCl pH 7.5, 100 mM NaCl, 1.5 mM MgCl2, 0.4 uM protein, 0.1 uM dsDNA library, 30 min, room temperature, amylose pull-down; high values mean tight binding
Conditions: protein: recombinant; tags: His6-MBP; chain copies: 2; dsDNA, one strand shown
Outline: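 The N-terminus-lacking fragment of mouse FoxP3 or FoxP1 carried a His6-MBP tag and was expressed in E. coli. At 0.4 µM it was incubated with 0.1 µM Klenow-filled degenerate double-stranded DNA library for 30 min at room temperature in Tris pH 7.5 buffer with NaCl and MgCl2, and complexes were caught on amylose resin, washed three times, released with proteinase K, PCR-barcoded and Illumina-sequenced. Binding is reads-per-million enrichment of pull-down over input with replicates pooled.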

Row | Sequence | binding signal
1 | GATGATTGTTCTCCCAGCTGATGAATTCGATTCTTCGAGTAAACAAATTTTCCTAATCTTTCTGTTCAAGCGCCATCTAC | 0.855 RPM ratio (pull-down/input)
2 | GATGATTGTTCTCCCAGCTGATGAATTTCACCAATCGAGTAAACAAATTTTCCTAATCTTTCTGTTCAAGCGCCATCTAC | 1.04 RPM ratio (pull-down/input)
3 | GATGATTGTTCTCCCAGCTGATGAATTCGCGGTGTCGAGTAAACAAATTTTCCTAATCTTTCTGTTCAAGCGCCATCTAC | 0.858 RPM ratio (pull-down/input)
4 | GATGATTGTTCTCCCAGCTGATGAATTAATGGGGTCGAGTAAACAAATTTTCCTAATCTTTCTGTTCAAGCGCCATCTAC | 0.798 RPM ratio (pull-down/input)
5 | GATGATTGTTCTCCCAGCTGATGAATTACCACCATCGAGTAAACAAATTTTCCTAATCTTTCTGTTCAAGCGCCATCTAC | 1.11 RPM ratio (pull-down/input)
6 | GATGATTGTTCTCCCAGCTGATGAATTTCCGCTTTCGAGTAAACAAATTTTCCTAATCTTTCTGTTCAAGCGCCATCTAC | 0.883 RPM ratio (pull-down/input)
7 | GATGATTGTTCTCCCAGCTGATGAATTGGGCTATTCGAGTAAACAAATTTTCCTAATCTTTCTGTTCAAGCGCCATCTAC | 0.934 RPM ratio (pull-down/input)
8 | GATGATTGTTCTCCCAGCTGATGAATTACTGCACTCGAGTAAACAAATTTTCCTAATCTTTCTGTTCAAGCGCCATCTAC | 1.06 RPM ratio (pull-down/input)
9 | GATGATTGTTCTCCCAGCTGATGAATTACAAGCTTCGAGTAAACAAATTTTCCTAATCTTTCTGTTCAAGCGCCATCTAC | 1.15 RPM ratio (pull-down/input)
10 | GATGATTGTTCTCCCAGCTGATGAATTACAGGTCTCGAGTAAACAAATTTTCCTAATCTTTCTGTTCAAGCGCCATCTAC | 0.983 RPM ratio (pull-down/input)
11 | GATGATTGTTCTCCCAGCTGATGAATTCTTTCAATCGAGTAAACAAATTTTCCTAATCTTTCTGTTCAAGCGCCATCTAC | 0.972 RPM ratio (pull-down/input)
12 | GATGATTGTTCTCCCAGCTGATGAATTGCATGCATCGAGTAAACAAATTTTCCTAATCTTTCTGTTCAAGCGCCATCTAC | 1.52 RPM ratio (pull-down/input)
13 | GATGATTGTTCTCCCAGCTGATGAATTCCCCTTATCGAGTAAACAAATTTTCCTAATCTTTCTGTTCAAGCGCCATCTAC | 0.861 RPM ratio (pull-down/input)
14 | GATGATTGTTCTCCCAGCTGATGAATTCTAAGTCTCGAGTAAACAAATTTTCCTAATCTTTCTGTTCAAGCGCCATCTAC | 0.892 RPM ratio (pull-down/input)
15 | GATGATTGTTCTCCCAGCTGATGAATTCAGATCTTCGAGTAAACAAATTTTCCTAATCTTTCTGTTCAAGCGCCATCTAC | 0.784 RPM ratio (pull-down/input)
16 | GATGATTGTTCTCCCAGCTGATGAATTGATGTAATCGAGTAAACAAATTTTCCTAATCTTTCTGTTCAAGCGCCATCTAC | 1.63 RPM ratio (pull-down/input)
17 | GATGATTGTTCTCCCAGCTGATGAATTCGGTGATTCGAGTAAACAAATTTTCCTAATCTTTCTGTTCAAGCGCCATCTAC | 0.938 RPM ratio (pull-down/input)
18 | GATGATTGTTCTCCCAGCTGATGAATTTGTTACATCGAGTAAACAAATTTTCCTAATCTTTCTGTTCAAGCGCCATCTAC | 1.39 RPM ratio (pull-down/input)
19 | GATGATTGTTCTCCCAGCTGATGAATTAATGACCTCGAGTAAACAAATTTTCCTAATCTTTCTGTTCAAGCGCCATCTAC | 0.901 RPM ratio (pull-down/input)
20 | GATGATTGTTCTCCCAGCTGATGAATTGATGCTGTCGAGTAAACAAATTTTCCTAATCTTTCTGTTCAAGCGCCATCTAC | 1.4 RPM ratio (pull-down/input)
21 | GATGATTGTTCTCCCAGCTGATGAATTACCGGAATCGAGTAAACAAATTTTCCTAATCTTTCTGTTCAAGCGCCATCTAC | 1.02 RPM ratio (pull-down/input)

Row | Sequence | binding signal
22 | GATGATTGTTCTCCCAGCTGATGAATTGTATCAGTCGAGTAAACAAATTTTCCTAATCTTTCTGTTCAAGCGCCATCTAC | 1.2 RPM ratio (pull-down/input)
23 | GATGATTGTTCTCCCAGCTGATGAATTTCGATCCTCGAGTAAACAAATTTTCCTAATCTTTCTGTTCAAGCGCCATCTAC | 0.75 RPM ratio (pull-down/input)
24 | GATGATTGTTCTCCCAGCTGATGAATTGTTAAAGTCGAGTAAACAAATTTTCCTAATCTTTCTGTTCAAGCGCCATCTAC | 1.2 RPM ratio (pull-down/input)
25 | GATGATTGTTCTCCCAGCTGATGAATTCGTCCTATCGAGTAAACAAATTTTCCTAATCTTTCTGTTCAAGCGCCATCTAC | 0.835 RPM ratio (pull-down/input)
26 | GATGATTGTTCTCCCAGCTGATGAATTAGCACTCTCGAGTAAACAAATTTTCCTAATCTTTCTGTTCAAGCGCCATCTAC | 0.939 RPM ratio (pull-down/input)
27 | GATGATTGTTCTCCCAGCTGATGAATTACGCGTGTCGAGTAAACAAATTTTCCTAATCTTTCTGTTCAAGCGCCATCTAC | 1.05 RPM ratio (pull-down/input)
28 | GATGATTGTTCTCCCAGCTGATGAATTTCTGCTATCGAGTAAACAAATTTTCCTAATCTTTCTGTTCAAGCGCCATCTAC | 0.977 RPM ratio (pull-down/input)
29 | GATGATTGTTCTCCCAGCTGATGAATTAGCAGACTCGAGTAAACAAATTTTCCTAATCTTTCTGTTCAAGCGCCATCTAC | 0.878 RPM ratio (pull-down/input)
30 | GATGATTGTTCTCCCAGCTGATGAATTGATCACGTCGAGTAAACAAATTTTCCTAATCTTTCTGTTCAAGCGCCATCTAC | 1.01 RPM ratio (pull-down/input)
31 | GATGATTGTTCTCCCAGCTGATGAATTGTACTTATCGAGTAAACAAATTTTCCTAATCTTTCTGTTCAAGCGCCATCTAC | 1.12 RPM ratio (pull-down/input)
32 | GATGATTGTTCTCCCAGCTGATGAATTCACTGCCTCGAGTAAACAAATTTTCCTAATCTTTCTGTTCAAGCGCCATCTAC | 0.84 RPM ratio (pull-down/input)
33 | GATGATTGTTCTCCCAGCTGATGAATTCAGACGGTCGAGTAAACAAATTTTCCTAATCTTTCTGTTCAAGCGCCATCTAC | 0.766 RPM ratio (pull-down/input)
34 | GATGATTGTTCTCCCAGCTGATGAATTTTCGATCTCGAGTAAACAAATTTTCCTAATCTTTCTGTTCAAGCGCCATCTAC | 0.923 RPM ratio (pull-down/input)
35 | GATGATTGTTCTCCCAGCTGATGAATTGCCATTATCGAGTAAACAAATTTTCCTAATCTTTCTGTTCAAGCGCCATCTAC | 1.16 RPM ratio (pull-down/input)
36 | GATGATTGTTCTCCCAGCTGATGAATTATTTACCTCGAGTAAACAAATTTTCCTAATCTTTCTGTTCAAGCGCCATCTAC | 1.86 RPM ratio (pull-down/input)
37 | GATGATTGTTCTCCCAGCTGATGAATTGTAATGATCGAGTAAACAAATTTTCCTAATCTTTCTGTTCAAGCGCCATCTAC | 1.13 RPM ratio (pull-down/input)
38 | GATGATTGTTCTCCCAGCTGATGAATTTCAAACCTCGAGTAAACAAATTTTCCTAATCTTTCTGTTCAAGCGCCATCTAC | 0.785 RPM ratio (pull-down/input)
39 | GATGATTGTTCTCCCAGCTGATGAATTGTGTCCTTCGAGTAAACAAATTTTCCTAATCTTTCTGTTCAAGCGCCATCTAC | 1.21 RPM ratio (pull-down/input)
40 | GATGATTGTTCTCCCAGCTGATGAATTCCCTGTGTCGAGTAAACAAATTTTCCTAATCTTTCTGTTCAAGCGCCATCTAC | 0.851 RPM ratio (pull-down/input)
41 | GATGATTGTTCTCCCAGCTGATGAATTTCCACTTTCGAGTAAACAAATTTTCCTAATCTTTCTGTTCAAGCGCCATCTAC | 0.875 RPM ratio (pull-down/input)
42 | GATGATTGTTCTCCCAGCTGATGAATTAAATATGTCGAGTAAACAAATTTTCCTAATCTTTCTGTTCAAGCGCCATCTAC | 1.07 RPM ratio (pull-down/input)

Row | Sequence | binding signal
43 | GATGATTGTTCTCCCAGCTGATGAATTGAGAAGGTCGAGTAAACAAATTTTCCTAATCTTTCTGTTCAAGCGCCATCTAC | 0.768 RPM ratio (pull-down/input)
44 | GATGATTGTTCTCCCAGCTGATGAATTTCGTTGGTCGAGTAAACAAATTTTCCTAATCTTTCTGTTCAAGCGCCATCTAC | 0.899 RPM ratio (pull-down/input)
45 | GATGATTGTTCTCCCAGCTGATGAATTATCGGCATCGAGTAAACAAATTTTCCTAATCTTTCTGTTCAAGCGCCATCTAC | 1.02 RPM ratio (pull-down/input)
46 | GATGATTGTTCTCCCAGCTGATGAATTGACCGATTCGAGTAAACAAATTTTCCTAATCTTTCTGTTCAAGCGCCATCTAC | 0.987 RPM ratio (pull-down/input)
47 | GATGATTGTTCTCCCAGCTGATGAATTGGTAAGTTCGAGTAAACAAATTTTCCTAATCTTTCTGTTCAAGCGCCATCTAC | 0.98 RPM ratio (pull-down/input)
48 | GATGATTGTTCTCCCAGCTGATGAATTGTGAAGGTCGAGTAAACAAATTTTCCTAATCTTTCTGTTCAAGCGCCATCTAC | 0.931 RPM ratio (pull-down/input)
49 | GATGATTGTTCTCCCAGCTGATGAATTGAATCCTTCGAGTAAACAAATTTTCCTAATCTTTCTGTTCAAGCGCCATCTAC | 0.865 RPM ratio (pull-down/input)
50 | GATGATTGTTCTCCCAGCTGATGAATTATAGAGCTCGAGTAAACAAATTTTCCTAATCTTTCTGTTCAAGCGCCATCTAC | 0.804 RPM ratio (pull-down/input)
51 | GATGATTGTTCTCCCAGCTGATGAATTCCTTACCTCGAGTAAACAAATTTTCCTAATCTTTCTGTTCAAGCGCCATCTAC | 0.756 RPM ratio (pull-down/input)
52 | GATGATTGTTCTCCCAGCTGATGAATTTATGGTGTCGAGTAAACAAATTTTCCTAATCTTTCTGTTCAAGCGCCATCTAC | 1.15 RPM ratio (pull-down/input)
53 | GATGATTGTTCTCCCAGCTGATGAATTATGTAGGTCGAGTAAACAAATTTTCCTAATCTTTCTGTTCAAGCGCCATCTAC | 1.01 RPM ratio (pull-down/input)
54 | GATGATTGTTCTCCCAGCTGATGAATTGTGACAGTCGAGTAAACAAATTTTCCTAATCTTTCTGTTCAAGCGCCATCTAC | 1.07 RPM ratio (pull-down/input)
55 | GATGATTGTTCTCCCAGCTGATGAATTTTCTCACTCGAGTAAACAAATTTTCCTAATCTTTCTGTTCAAGCGCCATCTAC | 0.952 RPM ratio (pull-down/input)
56 | GATGATTGTTCTCCCAGCTGATGAATTCCGGCTGTCGAGTAAACAAATTTTCCTAATCTTTCTGTTCAAGCGCCATCTAC | 0.761 RPM ratio (pull-down/input)
57 | GATGATTGTTCTCCCAGCTGATGAATTGTCCTCCTCGAGTAAACAAATTTTCCTAATCTTTCTGTTCAAGCGCCATCTAC | 1.03 RPM ratio (pull-down/input)
58 | GATGATTGTTCTCCCAGCTGATGAATTGATGTTGTCGAGTAAACAAATTTTCCTAATCTTTCTGTTCAAGCGCCATCTAC | 2.52 RPM ratio (pull-down/input)
59 | GATGATTGTTCTCCCAGCTGATGAATTACATCGGTCGAGTAAACAAATTTTCCTAATCTTTCTGTTCAAGCGCCATCTAC | 0.978 RPM ratio (pull-down/input)
60 | GATGATTGTTCTCCCAGCTGATGAATTGACCTTCTCGAGTAAACAAATTTTCCTAATCTTTCTGTTCAAGCGCCATCTAC | 0.921 RPM ratio (pull-down/input)
61 | GATGATTGTTCTCCCAGCTGATGAATTGGCCGGGTCGAGTAAACAAATTTTCCTAATCTTTCTGTTCAAGCGCCATCTAC | 0.665 RPM ratio (pull-down/input)
62 | GATGATTGTTCTCCCAGCTGATGAATTAGCCAAATCGAGTAAACAAATTTTCCTAATCTTTCTGTTCAAGCGCCATCTAC | 1.11 RPM ratio (pull-down/input)
63 | GATGATTGTTCTCCCAGCTGATGAATTCGGTGACTCGAGTAAACAAATTTTCCTAATCTTTCTGTTCAAGCGCCATCTAC | 0.83 RPM ratio (pull-down/input)
